According to the supplement of paper PMC11417369:
This is one part of the list.

These sequences were tested on PfSIP2 AP2 domain 1 (GST-tagged) (assay: gcPBM binding intensity (ln(normalized median fluorescence intensity)); higher = stronger DNA binding).
In short: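 Each value is the highest Masliner-normalised natural-log median intensity across replicate spots of either orientation of a probe. The probes were primer-extended double-stranded 36-bp intergenic genomic sequences on an Agilent 4 × 180k array, alongside negative controls, exposed for 1 h to GST-tagged P. falciparum DNA-binding domains expressed in E. coli. Bound protein was picked up with Alexa488 anti-GST antibody and scanned at 488 nm.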

| Sequence | gcPBM binding intensity (ln) |
| --- | --- |
| TTGAAAAATGAGCACACACACAAATACATACATATT [CACACA_site3231] | 7.05 |
| TTTTAACAAAAAAAAAGAAAAGAAAAGAAAATAATA [XGTACX_negctrl_site530] | 6.54 |
| TTAACTCTGGAGAAAAGTACATAGTATCTGGTAACA [XGTACX_site4941] | 6.94 |
| TATATTTATATCCACTTCGTTTAACGCACAGATATA [CACACA_negctrl_site954] | 7.06 |
| ATTATAAAAATATATTGTACACAAAAATGTTTATAT [XGTACX_site5066] | 7.01 |
| TGAGATATAAAAATATGTACTTATGTATAAATATTT [XGTACX_site7746] | 6.83 |
| CCAAATTTATTTTGTAGTACTCCGTATAGATCAACA [XGTACX_site7945] | 6.95 |
| AAGTTTTTTTTTAACACACACATAATAAAATAAATA [CACACA_site446] | 7.01 |
| TGGTTTCAATAATTAATAAAATATATTATTGTGAAA [CACACA_negctrl_site442] | 6.74 |
| TCTAACATATAATATTCACACACATATATATATTAT [CACACA_site8236] | 7.15 |
| ATAATATATTTATAATGTACAAACCATTTGTATTAA [XGTACX_site4370] | 6.84 |
| ATTATTATTATATTTTGTACATATGTAACAATATAT [XGTACX_site5780] | 7.02 |
| TAAATATGTGTATGTAGTACATAGTGTTTTTTTTTT [XGTACX_site3748] | 7.15 |
| TGCATATTACTTTTTCACATAAAAATGATCCGATTA [GTGCAC_negctrl_site526] | 6.99 |
| ATATTATGAATTGTCACACATATATTTAAAAATGTA [CACACA_site4852] | 6.85 |
| GTTATACACATCAACACACACATACAACGTGGTGTA [CACACA_site6677] | 7.12 |
| AAAATATAAAAATGAAGTACAAAAAAAAAAAAAAAA [XGTACX_site8132] | 6.92 |
| AAAAAATGACTTAATATGAGCATATATTATGTTGTT [CACACA_negctrl_site1609] | 6.71 |
| CATTAAAATTGAGAGATGCACTTTTTAAGACCTTGT | 9.06 |
| AAAAAAAATTAAATAAATAAATATACACATATATAT [GTGCAC_negctrl_site394] | 7.09 |
| TTTTTTTTTTTTTTTTTTTTACCCCTTTTTCAAAAA [CACACA_negctrl_site1524] | 7.04 |
| AAAACATTGTTTATGTGTACATAATTATATTTACAA [XGTACX_site6926] | 7.1 |

| Sequence | gcPBM binding intensity (ln) |
| --- | --- |
| AACTAATTCATGTTATATTAGATAAAAAAAAAAAAA [TGCATGCA_negctrl_site340] | 6.88 |
| ATATTTTTTAATTTTACACACCATATAAAATAATTC [CACACA_site7339] | 7.09 |
| AAATATATTATATGTACACACAAAATTAAGGGATAT [CACACA_site1375] | 7.47 |
| ATCAATACTTTTTTGGGTACATAAATATATATATAT [XGTACX_site8436] | 9.07 |
| GTGTTTGAAAATAAAGCATGCAAATATATTTGAAAT [TGCATGCA_site386] | 7.05 |
| AAAATAATAAATAAATGTACATATATATATATATAT [XGTACX_site3078] | 9.18 |
| TTTTTTTTGTTCATTGTGCACATTGCTTGCATGGAA [GTGCAC_site9693] | 9.25 |
| ATAAGATTATACAATTGTACGTTGTTCAAGATAAGG [XGTACX_site191] | 6.99 |
| TTTATGTGTATTAAGTGTACACATATAGTGTATTTT [XGTACX_site999] | 7.42 |
| ATATATAAGGAAAAAAGTACTTATATTTTTTTTTTG [XGTACX_site1909] | 6.74 |
| AACAAATGTTAAATGTTTAAGGAGAAAATAAAGACA [CACACA_negctrl_site1163] | 7.4 |
| GAAAACATAAAAATATGTACTTAAAATATATTTTGT [XGTACX_site868] | 6.89 |
| AAAACGAAACATCTGTGTATAAGTCTATATTATTAT [XGTACX_negctrl_site301] | 6.85 |
| TGTCATGATACATACACACACATACCCATACCCATA [CACACA_site5211] | 7.06 |
| AAATAAAGCATGTGCTGTACAAACGAAATATTTAAG [XGTACX_site3146] | 6.95 |
| TAAAATGTACAGGACGCACACACATATATATATATA [CACACA_site3673] | 9.5 |
| TTTTTTTTTTTTCATTGTACTCTTAAAAATTCAACT [XGTACX_site3154] | 7.11 |
| AACAACAACTAATATGCACACATTTAAAAACAAAAT [CACACA_site2440] | 7.5 |
| TATTTTTTTTTTTTTTTACACACTATAGGGAAAAAA [CACACA_site8583] | 6.95 |
| ATTAAAATTTAAAATACACACACATATATATAATAT [CACACA_site8612] | 7.16 |
| GCTTCTTAATATCATACACACATAGATATATTTATA [CACACA_site5676] | 7.5 |
| GGAGACTTTGTATTGGGTACGTATTTCAATGCATGT [XGTACX_site1596] | 7.12 |

| Sequence | gcPBM binding intensity (ln) |
| --- | --- |
| AAACCTTTACATCGTTTGCACTATATTGATATGTGT [GTGCAC_site9686] | 8.37 |
| CATACATACATACATACACACACATATATATATATA [CACACA_site8593] | 9.67 |
| TTTTTTAACAAAAATAAAACATAACTGAATTAAAAG [GTGCAC_negctrl_site244] | 7 |
| CTTCCTATATTTTACTGTACTTTTTTTTTTTTTTTT [XGTACX_site4016] | 7.67 |
| ACGAATTAAATTTGCTGTACCAAAAAGAAAACAATA [XGTACX_site5511] | 7.09 |
| TCATTTTAAAAAAATAGTACTTTAAGAAACTTTTAT [XGTACX_site602] | 6.81 |
| TTTTTTTTTTTTTTTTTTTATGTATACATATTTATA [TGCATGCA_negctrl_site234] | 7.15 |
| GATATTCTATAAAAAAGTACAAATATTTTAAAAAAT [XGTACX_site2177] | 7.05 |
| AGCATTAATTATTTCACACATATATATATATATATA [CACACA_site4889] | 9.6 |
| TAAATCCTTTACAACACACACACAAAAAAAAAAAAA [CACACA_site643] | 7.07 |
| ATATTCATGTTGATATGTACTTATTCTATATTGAAT [XGTACX_site8347] | 7.01 |
| TATATATATATATATATACACACTTGTGCAGAATAT [CACACA_site2216] | 9.56 |
| AATACAAGAACTGACACACATACATACTACATTTTA [CACACA_site2829] | 7.08 |
| ATATTTATATATAGTAGTACTTTCAATAATTTAAAT [XGTACX_site7276] | 7.05 |
| TATGATATTTATATGCGTACTGAAGTATGCCTATTT [XGTACX_site6133] | 6.77 |
| AAAAAATTAAAAATACGTACATATATACATATATAT [XGTACX_site4621] | 7.31 |
| TCTTAAAATATATAGGTGCAAAAAAAAAAAAAAAAA | 10.6 |
| AAAGAAAGAAGACACACACACATATATAAATATCAA [CACACA_site7715] | 6.9 |
| TGTTTTTATTTATTCTGTACTGAAGAGAGTTATATA [XGTACX_site8859] | 7.19 |
| TAAGAAATAAATAGTACACACATAGACACAGACACA [CACACA_site4934] | 7.27 |
| TTTAAATACAGACATACACACATACACCCACATATA [CACACA_site8078] | 7.31 |
| ATATAAATTTTTTATGAACACACAAATACAGACACT [CACACA_site8848] | 7.37 |

| Sequence | gcPBM binding intensity (ln) |
| --- | --- |
| GTATATGAGAAAAAAAGTACATGCACAAAATGTATA [XGTACX_site6441] | 7.42 |
| ATAATTAAAAAAAATTGTACATATAAATAGAAGATT [XGTACX_site230] | 7.22 |
| AGATTAAAATAATATAAACACACATATACTTTTTTC [CACACA_site8085] | 7.01 |
| AAAAAAAAAAGAATAGCACACACACCGATATAAATA [CACACA_site8111] | 6.79 |
| TAGGTATGCTCTCAATGTACATAAAATAATTTTACT [XGTACX_site6556] | 7.02 |
| ATAAATATTAAAAGTACACACAGATACACTAATTAT [CACACA_site1808] | 7.2 |
| TGAGTACACAATAATACATGCAATTCCTATGAATAT [TGCATGCA_site851] | 6.99 |
| ATATGACATAAAACATGTACATGTTCATAAATATAT [XGTACX_site1923] | 7.07 |
| ATTTACATAATAAAATGTACATTTATAAATATTATA [XGTACX_site1901] | 7.11 |
| TACACTTTTTATGAAGTGCATGTATAGCTCTTAAAA [GTGCAC_site9595] | 7.9 |
| CATTATTCATTTTGGATGCACTGACAGAAAAATGGT | 9.22 |
| ATGCTCAGGAAAACATGTACAAAATTATTTGTTATA [XGTACX_site4306] | 6.9 |
| AGTTTTTATAAAAATAGTACATATTTATTAATCTGT [XGTACX_site5881] | 6.89 |
| TTTTGTGCTTAAAAAAGTACAAAATATAAAAAAAAT [XGTACX_site7876] | 7.18 |
| TGCAGTCTGGAGAAACGTACACAGTATCTGGTAACC [XGTACX_site2543] | 6.94 |
| CCCACAGACGGACACACACACACACCGACACATATA [CACACA_site4356] | 7.51 |
| AAAATTGAACCTGACAAGGTATTTTATTATTTATTA [TGCATGCA_negctrl_site181] | 6.48 |
| TTCTATTTTAATATCTGTACATAATAAAGATCCATT [XGTACX_site1142] | 7.17 |
| CATATATAAAAAAACACACACATATATATATATATA [CACACA_site1195] | 9.11 |
| ACATAAATATAAACGTGTACATATATAAATATATAT [XGTACX_site7293] | 7.26 |
| ATTTTTTTTTTTTATAGTGGATCCACATTTGCCATT [CACACA_negctrl_site1284] | 6.79 |
| ATATATTTTAATTGTTGTACATATTAAATAAATAGG [XGTACX_site2311] | 7.14 |
